Laboratory results reported in patent US20240115500A1, “POLYMERIC MICELLE COMPLEXES OF MRNA OR ZWITTERIONIC AGENTS, AND FORMULATIONS AND USES THEREOF” (Aravasc Inc., priority 2020, published 2024).

Assay: Agarose gel electrophoresis of protein + PBC formulations (Example 1)
Assay type: physicochemical
Details: PBC:protein ratios of 3:1, 9:1 and 30:1 w/w; PBS pH 7.4; room temperature, 10-20 minutes; FIG. 1

Semaglutide
complexation with PBC (agarose gel): observed to complex
